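How tested: cells in 96-well plates exposed to compound for 48 hours at five concentrations. At the GI50, growth is halved. TGI denotes the concentration required for complete inhibition of growth.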

The subject of this test is NCI-H322M lung. The experiment in a line: NCI-60 cell line screen, 48 h.
Turning to `C=C1CCC2C3(C)COC(c4cc(F)cc(F)c4)OC3CCC2(C)C1C/C=C1/C(=O)OCC1O` (stereo unspecified), the GI50 was 2.83 µM and the TGI is 10.5 µM.

As to `O=C(NN1C(=O)/C(=C/C=C/c2ccc([N+](=O)[O-])o2)SC1=S)c1ccc(Cl)cc1`, the GI50 is 1.72 µM and the TGI amounted to 3.45 µM.

For `O=C(OCCOCCO)N(c1cccc(Br)c1)c1nc(SCCN2CCOCC2)nc2c1cnn2CC(Cl)c1ccc(Br)cc1` (stereo unspecified), the GI50 is 11.8 µM and the TGI was > 100 µM.

The values are drawn from PubChem BioAssay (NCI).
